Experimental data published in the supplement of paper PMC3334620.
The full ranking holds about 33,000 sequences; the median of “E-score (-0.5 to 0.5)” is about -0.016, and the highest 2% start at about 0.31. This is one part of the list.

biological target: Cst6 (UniProt P40535); test: PBM E-score (8-mer binding enrichment) (E-score (-0.5 to 0.5)); higher = stronger / more preferred TF binding; most listed sequences are background and not binding sites; conditions: protein concentration: 200 nM; construct: GST-DNA-binding domain
Description: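 Universal 'all 10-mer' protein binding microarrays (Agilent AMADID 015681) probed with GST-tagged S. cerevisiae TFs (full-length or DBD) made by in vitro transcription/translation (PURExpress), about 100-200 nM. Bound TF was detected with fluorescent anti-GST. Each ungapped 8-mer (which stands for itself and its reverse complement) is scored by the PBM enrichment score (E-score), a modified Wilcoxon-Mann-Whitney statistic from -0.5 to +0.5, computed with the Universal PBM Analysis Suite. Scale: above 0.35 generally sequence-specific binding.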

Sequence | PBM E-score
CTTCTAAC | -0.0385
GACATGAA | 0.116
CGCTTTCA | -0.0319
CGCGCACG | 0.155
CTACAAGA | -0.0692
CGTCTGTC | 0.0367
AATACTCG | 0.0658
CGACGCAC | 0.149
GATGGACC | 0.00105
AGCCTATG | -0.0766
GTTCTCAA | 0.147
ACTACAAG | 0.0806
ACTTCGCG | 0.0109
CGTAGCAG | -0.0605
GGACTTCA | -0.272
ACTTGGCA | -0.15
ATTTATGG | 0.148
GGAACAGA | -0.0113
CTGCCTAA | -0.00889
CTCAGGTC | -0.148
GCCACCAC | -0.0797
CTCAACCC | -0.181
CACTTGCC | -0.126
CATGACCC | -0.0425
CGTTTTCC | 0.0612

Sequence | PBM E-score
AAGCGTGC | 0.0722
TCTTTGCA | 0.0306
CATGTAGC | -0.12
CCGCAGAA | 0.0771
ATGACCCG | -0.143
GCATACGA | 0.025
ATCTTGAG | -0.0942
GGGACGAA | -0.214
CAGGGCGA | -0.00562
GGAGATAC | -0.187
CGTGACAA | 0.108
CTTCCCGA | -0.0284
AACGCATT | 0.1
ACTGACCG | -0.0973
CATCTTGA | -0.0929
GGATGGTA | -0.0175
GGACATTA | 0.0079
ACGTAACC | 0.414
CAATGATG | 0.391
CCCGGTGA | 0.00785
AGTCATCA | 0.0814
ATCGACTC | -0.0297
CGTCGCAG | -0.0455
AGCCCAAC | -0.0976
CGTTACGA | 0.182

Sequence | PBM E-score
GGTTCTGA | 0.0473
GCATGCGA | 0.174
GCCGTGAC | 0.341
TGATAAAA | 0.302
GATTTCAA | -0.0222
ATAGGACG | -0.0146
GGCTACCA | -0.158
AGCCACCT | -0.179
ATGATTAG | 0.158
AATCAAGA | 0.112
TAAAAGTA | 0.15
ATGGCCCA | -0.0308
CCCCTCCC | -0.227
GTCAACAA | 0.165
AGCCAGCC | -0.228
ACTGTCTG | -0.132
AAATAGTA | 0.109
CCAAAACC | 0.0289
CAGATCCA | -0.033
CAGGTGAA | 0.0651
CCAGCGAA | -0.191
CCGTACTC | -0.113
GGTCACCA | -0.148
CTATCGAG | -0.0808
AAGCTAAT | 0.199

Sequence | PBM E-score
CGTGGGGC | -0.187
AGTTATCG | 0.177
CTGTGTAC | -0.0331
ACCAACAT | 0.149
GCCGCCTA | -0.0725
GAGGATTA | -0.125
GCCGACAC | -0.214
GAACTTGC | -0.125
CTTCGATA | 0.178
ACCCGGAG | -0.0777
GCAGCACA | -0.0182
GGCAGTAA | -0.092
CATAAGAC | -0.0141
ATGGGTAG | -0.196
TGACCGAA | 0.192
ACTGTAAA | 0.189
AAACCAAA | 0.0972
AATGCTGT | 0.0487
AGGCTAAT | -0.0136
CACGCTTA | 0.0938
CATGTACC | -0.162
GCCTGCCA | -0.126
AGTGTGCC | -0.088
CGGGGGTA | -0.199
CCCGAAAA | 0.0582

Sequence | PBM E-score
CTTCTGAA | 0.0067
ACATGGCG | -0.00129
AAGTTAAA | 0.155
ATAGGTAG | -0.0626
CCGCGACG | -0.0707
GCTTGCAA | 0.134
TAATCTCA | 0.143
ACGGGCTA | -0.174
ACGATAAG | -0.0893
AATTCTAC | 0.119
AAAAAGAG | -0.0291
CGGGACGA | -0.06
ACTTAAGC | -0.0959
CCAGGGCC | -0.39
GGAATGGA | -0.17
AGACCGAG | -0.274
GCGAATAA | 0.0488
AAGTCCAG | -0.207
TCATTTCA | 0.206
CAAATGTC | -0.0707
CTGAGAAC | 0.0777
ATTGGCGC | 0.0493
CTGGGAAG | -0.148
AAAGGGCC | -0.243
CACTCGAC | -0.0355

Sequence | PBM E-score
GGGGTATA | -0.173
CGGCATTC | 0.191
GGACAAAA | 0.106
ATGCACCC | -0.0971
AGCCCACA | -0.297
ACATGGAC | -0.218
ACAGATAT | -0.00952
AAACTAAG | 0.216
ACGTTTCG | 0.127
CATCAAAA | 0.236
GAATAGGA | -0.059
ATCATCAT | 0.355
GTTCGCCA | -0.0637
GCCCGCAA | -0.165
AAAGGACT | -0.0673
ACACGCCA | 0.0199
ACTCCCGC | -0.0297
ATGTAAAC | 0.269
CGGAGCAA | -0.0949
CTCTTACA | -0.0491
CGGATCTA | -0.0503
TAGAGCGA | -0.0948
AGAGTTTG | 0.0165
TACGCCTA | 0.0565
GGGTGTCA | 0.0351

Sequence | PBM E-score
CCCCGACC | -0.251
CGGCAACA | 0.235
AATAATGC | 0.188
CGTCACCA | 0.484
AAACCTGC | -0.0935
TACGAAAA | 0.233
ACTAAAAC | 0.168
AGCTGTCC | -0.16
AACCTCAT | 0.201
GCAACAGA | 0.0229
ATCCCGCC | -0.197
ACCACAGG | -0.258
GGCTATAA | -0.0437
AGATAGAT | -0.146
ATCTCACG | 0.0583
ATCCTTAG | -0.114
ACCCGGAT | -0.33
ACACGGCG | 0.394
CGGACCAG | -0.126
CAAAGCGC | -0.0444
ATGAATGG | 0.155
CGCAATTC | 0.0895
ACGCGTAA | 0.129
AGGCTCAA | 0.068
CGGCCACA | -0.0975

Sequence | PBM E-score
GCATGCTA | -0.172
ACGACCCA | -0.0849
ATGTATAC | 0.202
CATTGATC | 0.131
GAACTTTA | -0.0635
CGGGCCTA | -0.335
GACGAGCC | -0.0886
CAAAAGGC | 0.0614
TTAAACAA | 0.0801
CATCCGGG | -0.148
CATTTTCC | 0.109
GGCACGCC | -0.184
GTATACGA | -0.0654
AATGAACA | 0.0757
CTCATGGC | -0.0491
TAGCTATA | 0.0573
GCCCTAAC | -0.0495
AAGGACTG | -0.289
GTTCCCGA | -0.229
CTGATGCC | 0.113
CTTTCTCC | -0.227
CTAATCAC | 0.185
ACTACATA | 0.148
AACCGCAA | 0.107
GTCTCTAA | -0.117

Sequence | PBM E-score
CCAAAGCC | -0.0189
ACACAGTC | -0.198
CCGTCTAG | -0.0667
ATTGGACC | -0.258
CAGCACCC | -0.185
GCTGGCAC | -0.172
ATTTGTCC | 0.143
ATCAAGAG | 0.036
CTCACCAA | 0.102
ACGTGCGA | 0.0486
ATGGAATC | 0.226
GAGCCGCC | 0.0784
CTGTCCCA | -0.219
CTCGTCAA | 0.0507
AGTTATAC | 0.118
ACCGAGAC | -0.167
ACTAAGAC | 0.0781
GTTCGCGA | 0.0158
GAGAGCAA | 0.0262
